{"source": "the supplement of paper PMC11417369", "note": "The other results are listed elsewhere or left out.", "data": [{"tested_on": "PfSIP2 AP2 domain 1 (GST-tagged)", "assay": "gcPBM binding intensity (ln(normalized median fluorescence intensity)); higher = stronger DNA binding", "summary_of_the_method": "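The binding buffer was 1× PBS containing 1% milk, 0.2 mg/ml BSA, 0.5% salmon testes DNA and 0.03% Triton X-100. In it, GST-tagged P. falciparum DNA-binding domains expressed in E. coli were applied for 1 h to an Agilent 4 × 180k array of primer-extended double-stranded 36-bp intergenic genomic probes plus negative controls. Binding intensity, read with Alexa488 anti-GST antibody and a 488 nm scan, is the highest Masliner-normalised natural-log median intensity across replicate spots of either probe orientation.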", "values": [{"sequence": "TTTTTTTTTCCTTCTTGTACATATTATATATACATA [XGTACX_site5988]", "gcPBM binding intensity (ln)": 7.09}, {"sequence": "TGGAACGTAATAAAATGTACATACGTTTTTCATATG [XGTACX_site6229]", "gcPBM binding intensity (ln)": 6.85}, {"sequence": "TTTTTTTTTTTTTGTACATGCAAATATTATGAACAC [TGCATGCA_site571]", "gcPBM binding intensity (ln)": 7.34}, {"sequence": "AACACATACATATATGCACACATTTTATTCCATTAT [CACACA_site2834]", "gcPBM binding intensity (ln)": 8.05}, {"sequence": "GACAAATTAATCGATTGTACACAATTTGTTTCGTTG [XGTACX_site35]", "gcPBM binding intensity (ln)": 6.87}, {"sequence": "TTCACATATATATAACGTACATTATTATTATTCTGA [XGTACX_site6006]", "gcPBM binding intensity (ln)": 7.09}, {"sequence": "TCTTATTTAATTAAACAAAAGAAAAAGAAAGAAAAG [CACACA_negctrl_site1569]", "gcPBM binding intensity (ln)": 7.03}, {"sequence": "TACAAGTATAAATAAGCACACATGTGTATATGTACA [CACACA_site7911]", "gcPBM binding intensity (ln)": 7.03}, {"sequence": "TTAGAAGGGATTAAAGTGCAAAATAGGATTAGAGTA", "gcPBM binding intensity (ln)": 7.71}, {"sequence": "TTTTTTTTTTTTTTAACACACATATAAATATTTTTC [CACACA_site6985]", "gcPBM binding intensity (ln)": 6.99}, {"sequence": "AAAGTTTTAAGAAAATGTACATAAGTATACATATAT [XGTACX_site1293]", "gcPBM binding intensity (ln)": 6.92}, {"sequence": "TTTTTCTATTCCATTCAACACACAAAAATGTATGCT [CACACA_site8268]", "gcPBM binding intensity (ln)": 7.06}, {"sequence": "TGCATTTTACTTGTTACACACATATAAAATTAACCA [CACACA_site7387]", "gcPBM binding intensity (ln)": 7.11}, {"sequence": "ATTCTTGTTATATAAGGTACAGAACAAAATATAAAA [XGTACX_site5510]", "gcPBM binding intensity (ln)": 7.21}, {"sequence": "TTTGGGATAAAACAAAGTACTAACAAAATATATAAT [XGTACX_site8240]", "gcPBM binding intensity (ln)": 7.07}, {"sequence": "AAATGGAGTTAATATTGTACATATATATATATATAT [XGTACX_site5452]", "gcPBM binding intensity (ln)": 9.57}, {"sequence": "TTTTATAAATATTTTTGTACACATTTAAATATTATT [XGTACX_site4973]", "gcPBM binding intensity (ln)": 7.02}, {"sequence": "TTTTCATATATTTATTGTACATATTACATATATAAT [XGTACX_site2425]", "gcPBM binding intensity (ln)": 7.18}, {"sequence": "ATTTATAAATCAAAGTGTACATATGTTTTATTTTTT [XGTACX_site804]", "gcPBM binding intensity (ln)": 7.11}, {"sequence": "AGAGAGAACGGTATAACATGCAATAAATTTCAGAAG [TGCATGCA_site423]", "gcPBM binding intensity (ln)": 6.74}, {"sequence": "TTTTTTTAATAAAAGTGTACCAAATTATATACACAT [XGTACX_site6811]", "gcPBM binding intensity (ln)": 7.13}, {"sequence": "TTTTATTATATGGAGGTGCATATATAATAATATAAT [GTGCAC_site9477]", "gcPBM binding intensity (ln)": 11}, {"sequence": "ATCGGTAATATTAACACACACATTTATTTATATTTA [CACACA_site6638]", "gcPBM binding intensity (ln)": 7.01}, {"sequence": "TTCTTTTTAAATATACTAATTATGTATAAAACAGAA [GTGCAC_negctrl_site131]", "gcPBM binding intensity (ln)": 7.01}, {"sequence": "ATGTATGTAATAAAAAGTACATATGTTCATAATAAA [XGTACX_site842]", "gcPBM binding intensity (ln)": 7.06}, {"sequence": "TATACAATATTTATAACACACATATTTATATAAACT [CACACA_site6932]", "gcPBM binding intensity (ln)": 7}, {"sequence": "AGAACATTTTCTCAGTGTACTTATATATTTGACATA [XGTACX_site6541]", "gcPBM binding intensity (ln)": 7.15}, {"sequence": "ACTAAACAATATGTATGTACATATTTTACATATAAT [XGTACX_site3318]", "gcPBM binding intensity (ln)": 7.19}, {"sequence": "ACTTCCTATATTTATGCATGCATTTTATTAAAAAAT [TGCATGCA_site747]", "gcPBM binding intensity (ln)": 7.99}, {"sequence": "ATATATCATGAACCTTGTACGTATATATATATATAT [XGTACX_site239]", "gcPBM binding intensity (ln)": 9.79}, {"sequence": "GATGGAATCTAATTTACATGCAGTGATATAATAAAT [TGCATGCA_site1031]", "gcPBM binding intensity (ln)": 7}, {"sequence": "TAATAATAACCGTTATGTACACAATTTTGTGAACAT [XGTACX_site8053]", "gcPBM binding intensity (ln)": 6.93}, {"sequence": "ATTTATTTATTTATATGTACATATATATATATATAT [XGTACX_site339]", "gcPBM binding intensity (ln)": 9.54}, {"sequence": "TACAGACAGAAACACACACACACGCATAAAAAAAAA [CACACA_site1514]", "gcPBM binding intensity (ln)": 7.33}, {"sequence": "GTTAAGTGTATATATACACACATATGTAATACATGA [CACACA_site3048]", "gcPBM binding intensity (ln)": 7.09}, {"sequence": "ATATGTAGAATAAAAAAAAAAAAAAAAAAAAAAAAT [CACACA_negctrl_site621]", "gcPBM binding intensity (ln)": 6.9}, {"sequence": "TAATTAAAATTATATATTAGAAAAAACATATAAAAC [CACACA_negctrl_site190]", "gcPBM binding intensity (ln)": 6.98}, {"sequence": "TAAAAATATATGTATACACACATATATATATATATA [CACACA_site3951]", "gcPBM binding intensity (ln)": 9.33}, {"sequence": "AAAAAAAGTGACTCCTTACACACTTTACATAATTTA [CACACA_site820]", "gcPBM binding intensity (ln)": 6.81}, {"sequence": "AATATTGAAATAACGCGTACAAAAAAAAGTTATATT [XGTACX_site6559]", "gcPBM binding intensity (ln)": 6.9}, {"sequence": "ATGTTATATTATAAAAGTACATTTTATTTTTATTTA [XGTACX_site4365]", "gcPBM binding intensity (ln)": 7.14}, {"sequence": "ATTTCCTTTTTCTGTTGTACTCATAAAATAATATGT [XGTACX_site7234]", "gcPBM binding intensity (ln)": 7.47}, {"sequence": "TTAATTTATAAAAACACACACAGGTAAAAAGGTGCA [CACACA_site1177]", "gcPBM binding intensity (ln)": 9.31}, {"sequence": "AATATAACTTTTTGCACACTTAATTTTTTTTTTTAA [CACACA_site3365]", "gcPBM binding intensity (ln)": 7.38}]}]}
